{"source": "the RNAGym collection of RNA variant scans (doi:10.7554/elife.90254)", "parents": {"B1": {"name": "LINE1-mini (parent)", "chain": "GGCAGAGCUCAACACAGCGUGGCAAAGUGGCUGUGGCUAGACUGCC"}}, "note": "Read counts are not given, so values of variants with three or more changes are uncertain.", "data": [{"variants_of": "B1", "experiment": "self-cleavage, relative activity (ratio to wild type); higher = more cleavage; in vitro, sequencing; the parent is a self-cleaving ribozyme", "values": [{"variant": "CGCAGAGCUCGACACAGCGAGGUAAAGUGGCUGUGGCUAGACUGCC", "note": "[G1C A11G U20A C23U]", "self-cleavage": 0}, {"variant": "CGCUGAGCUCAACACAGCGUCGCCAAGUGGCUGUAGCUAGACUGCC", "note": "[G1C A4U G21C A24C G35A]", "self-cleavage": 0.04}, {"variant": "CGCAGAGCUCUACACAGCGUGGCAAAGUGGCUGUGGCUAUACUGCC", "note": "[G1C A11U G40U]", "self-cleavage": 0.01}, {"variant": "CGCAGAGCUCUACACAGCGUGGCAAAGGGGCUGUGGCUAGACUGCC", "note": "[G1C A11U U28G]", "self-cleavage": 0.02}, {"variant": "CGCAGUGCUCAACACAGCGUUGCAAAGUGGCUGUGGCUAGACUGCC", "note": "[G1C A6U G21U]", "self-cleavage": 0.19}, {"variant": "AGCAGAGCUCAACACAGCGGGGCAAAGUGGCUGUGGCUAGACUGUC", "note": "[G1A U20G C45U]", "self-cleavage": 0.11}, {"variant": "AGCAGAGCUCAACACAGCGGGGCAAAGUGGCUCUGGCUAGACUGCC", "note": "[G1A U20G G33C]", "self-cleavage": 0.02}, {"variant": "AGCAGAGCGCAACACAGCGUGGCAAAGUGGCUGUAGCUAGACUGCC", "note": "[G1A U9G G35A]", "self-cleavage": 0.06}, {"variant": "CGCUGGGCUCAACACAGCGUGGCAAAGUGGCUGUGGCUAGACUGCC", "note": "[G1C A4U A6G]", "self-cleavage": 0.06}, {"variant": "CGCAGCGCUCAACACGGCGAGGCAAAGUGGCGGUGGAUAGACUGCC", "note": "[G1C A6C A16G U20A U32G C37A]", "self-cleavage": 0}, {"variant": "AGCAGAGCUCAACACAGCGUGGCAAAGCUGCUGUGGCUAGACUGCC", "note": "[G1A U28C G29U]", "self-cleavage": 0.61}, {"variant": "AGCAGAGCGCAACACAGCGUGGCAAAAUGGCCGUGGCUAGAGUGCC", "note": "[G1A U9G G27A U32C C42G]", "self-cleavage": 0.01}, {"variant": "CGCAGAGCUCGACACAGCGUGGCAAGGUGGCUGUGGAUAGACUGCC", "note": "[G1C A11G A26G C37A]", "self-cleavage": 0}, {"variant": "AGCAGAGCGCAAAACAGAGUGGCAAUGUGGCUGUGGCUAGACUUCC", "note": "[G1A U9G C13A C18A A26U G44U]", "self-cleavage": 0.25}, {"variant": "CGCCGAGCUCAACACAGCUUGGCAACGCGGUUGUGGCUAGACUGCC", "note": "[G1C A4C G19U A26C U28C C31U]", "self-cleavage": 0.01}, {"variant": "AGCAGAGCUCAACACAGCGGGGCAAAGUGGCUGUGUCUAGACUGCC", "note": "[G1A U20G G36U]", "self-cleavage": 0.01}, {"variant": "AGCAGAGCUCAACACAGCGAGGCAAAGUGGCUGUGGCUUGACUGCC", "note": "[G1A U20A A39U]", "self-cleavage": 0.67}, {"variant": "CGCGGAGCUCAACACAACGUGGCAAAGUGGCUGUGGCUAGACUGCC", "note": "[G1C A4G G17A]", "self-cleavage": 0.08}, {"variant": "CGCAGCGCUCAACACAUCGUGGCAAAGUGGCUGUGGCUAGACUGCC", "note": "[G1C A6C G17U]", "self-cleavage": 0.01}, {"variant": "CGCAGCGCUCAACAAAGCGUGGAAAAGUGGCUGUGGCUAGACUGCC", "note": "[G1C A6C C15A C23A]", "self-cleavage": 0.02}, {"variant": "CGCAGGGCUCCACACAGCGUGGCAAAGUGGUUGUGCCUAGACUGCC", "note": "[G1C A6G A11C C31U G36C]", "self-cleavage": 0.01}, {"variant": "CGCGGAGCUCAACACAGCGGGGCAAAGUGGCUGCGGCUAGACUGCC", "note": "[G1C A4G U20G U34C]", "self-cleavage": 0.01}, {"variant": "CGCAGUGCUCUACACAGCGUGGCAAAGUGGAUCUGGCUAGACUGCC", "note": "[G1C A6U A11U C31A G33C]", "self-cleavage": 0.01}, {"variant": "CGCUGAGCACAACACAGCGUGGCAAAGUGGCUGUGGCUAGACCGCU", "note": "[G1C A4U U9A U43C C46U]", "self-cleavage": 0.03}, {"variant": "AGCAGAGCUCAACACAGCGUGGCAAAGUGGCUGUGGCUAGACAGUG", "note": "[G1A U43A C45U C46G]", "self-cleavage": 0.06}, {"variant": "CGCAGUGCUCAACACCGCGUGGCAAAGUGGCUGUGGCUAGACUGCC", "note": "[G1C A6U A16C]", "self-cleavage": 0.03}, {"variant": "CGCAGAGCUCUACACAGCGUGGCAAAGUGGCUGUGGCUAGACUGGC", "note": "[G1C A11U C45G]", "self-cleavage": 0}, {"variant": "AGCAGAGCUCAACACAGCGUGGCAAAGUGGCACUGGCUAGACUGCC", "note": "[G1A U32A G33C]", "self-cleavage": 0.04}, {"variant": "CGCUGAGAUCAACACAGCGUGGCAAAGUGGCUGUGGCUAGACUGCC", "note": "[G1C A4U C8A]", "self-cleavage": 0.16}, {"variant": "AGCAGAGCUCAACACAGCGAGGCAAAGUGGCCGUGGCUAGACUGCC", "note": "[G1A U20A U32C]", "self-cleavage": 0.11}, {"variant": "CGCGGAGCUCCACACAGCGUGGCAAAGGGGCUGUGGCUAGACUGCC", "note": "[G1C A4G A11C U28G]", "self-cleavage": 0}, {"variant": "CGCCGAGCUUAACACAGCGUGGCAAAGUGGCUGUCGCUAGACUGCC", "note": "[G1C A4C C10U G35C]", "self-cleavage": 0.02}, {"variant": "AGCAGAGCUCAACACAGCGUGGCAAAGUGGCAGUUGCUAGACUGCC", "note": "[G1A U32A G35U]", "self-cleavage": 0.04}, {"variant": "CGCAGAGCUCCACACAGCGUGGCAAAGUGGCUGUGGCUAUACGGCC", "note": "[G1C A11C G40U U43G]", "self-cleavage": 0.01}, {"variant": "AGCAGAGCUCAACACAGCGUGGCAAAGUGGCUGUGGCAGGACUGCC", "note": "[G1A U38A A39G]", "self-cleavage": 0.09}, {"variant": "CGCAGCGCUCAACACAGCGUGGCAAAGUGGCUGUGGCUAUACUGCC", "note": "[G1C A6C G40U]", "self-cleavage": 0.06}, {"variant": "CGCAGUGCUCAACACAGCGUGGAAAAGUGGCUGUGGCUAGACUGCC", "note": "[G1C A6U C23A]", "self-cleavage": 0.05}, {"variant": "CGCAGAGCUCCACAUAGAGUGGCAAAGUGGCUGUGGCUAGACUGCC", "note": "[G1C A11C C15U C18A]", "self-cleavage": 0}, {"variant": "CGCUGAGCUCUACACGGCGUGGCAAAGUGGCUGUCGAUAGACUGGC", "note": "[G1C A4U A11U A16G G35C C37A C45G]", "self-cleavage": 0.01}, {"variant": "CGCGGAUCUCAACACAGCGUGGCAAAGUAGCUGUGGCUAGACUGAC", "note": "[G1C A4G G7U G29A C45A]", "self-cleavage": 0.01}, {"variant": "CGCAGGGCUCAACAGAGCGUGGCAAAGUGGCUGUGGCUAGACUGCC", "note": "[G1C A6G C15G]", "self-cleavage": 0.02}, {"variant": "AGCAGAGCUCAACACAGCGGGGCAAAGUGGCAGUGCCUAGAAUGCC", "note": "[G1A U20G U32A G36C C42A]", "self-cleavage": 0.04}, {"variant": "CGCAGCGCUAAACCCAGAGUGGCAAAGUGGCUCUGGCUAGACUGCC", "note": "[G1C A6C C10A A14C C18A G33C]", "self-cleavage": 0.02}, {"variant": "CGCGGAGCUCAACACAGAGUGGCAAAGUGGCUGUGGCUAGACUGCC", "note": "[G1C A4G C18A]", "self-cleavage": 0.01}, {"variant": "CGCCGAUCUCAACACAGCGUGGCAAAGUGGCUGUGGCUAGCCUGCC", "note": "[G1C A4C G7U A41C]", "self-cleavage": 0.16}, {"variant": "AGCAGAGCUCAACACAGCGUGGCAAAGAGGCUGUAGCUAGACUGAC", "note": "[G1A U28A G35A C45A]", "self-cleavage": 0.19}, {"variant": "CGCAGUGCUCAACACAGCGUGGCAAAGUGGCGGCGGCUAGAAUGCC", "note": "[G1C A6U U32G U34C C42A]", "self-cleavage": 0.01}, {"variant": "CGCUGAGCUCAACACAUCUUGGCAAAGUGGCUGGGGCUAGACUGCU", "note": "[G1C A4U G17U G19U U34G C46U]", "self-cleavage": 0.03}, {"variant": "CGCCGAGCUCAAGACAGCGUGGCAAGGUGGCCGUGGCUAGACUGCC", "note": "[G1C A4C C13G A26G U32C]", "self-cleavage": 0.01}, {"variant": "CGCAGGGGUCAAUACAGCGUGGCAAAGUGGCUGUGGCUAGACUGCC", "note": "[G1C A6G C8G C13U]", "self-cleavage": 0.04}, {"variant": "CGCAGGUCUCAACACAGCGUGGCCAAGUGGCUGUGGCUAGACUGCC", "note": "[G1C A6G G7U A24C]", "self-cleavage": 0.01}, {"variant": "CGCGGAGCUUAACACUGCGUGGCAGAGUGGCUGUGGUUAGACUGCC", "note": "[G1C A4G C10U A16U A25G C37U]", "self-cleavage": 0.01}, {"variant": "AGCAGAGCUCAACACAGCGAGGCAAGGUGGCUGUGGCUAGACUGCC", "note": "[G1A U20A A26G]", "self-cleavage": 0.01}, {"variant": "CGCAGGGCUCAACACAGCGUGGCAAAGUGGCUGUGGGUAGACUGCC", "note": "[G1C A6G C37G]", "self-cleavage": 0.01}, {"variant": "AGCAGAGCUCAACACAGCGAGGCAAAAUGGCUGUGGCCAGACUGCC", "note": "[G1A U20A G27A U38C]", "self-cleavage": 0.29}, {"variant": "CGCAGAGCUCUACACAGUGGUGCAAAGUGGCUCUGGCUACACUGCC", "note": "[G1C A11U C18U U20G G21U G33C G40C]", "self-cleavage": 0}]}]}
